This data set concerns the molecule itself. Briefly: native gel or EMSA; 4 uM purified lectin in 50 mM HEPES pH 7.4, 140 mM NaCl, room temperature, with or without 20 mM GalNAc for 1 h; 10% native gel.

B1: soybean lectin (natural protein, soybean (Glycine max), UniProt P05046 33-285, looked up)
chain: AETVSFSWNKFVPKQPNMILQGDAIVTSSGKLQLNKVDENGTPKPSSLGRALYSTPIHIWDKETGSVASFAASFNFTFYAPDTKRLADGLAFFLAPIDTKPQTHAGYLGLFNENESGDQVVAVEFDTFRNSWDPPNPHIGINVNSIRSIKTTSWDLANNKVAKVLITYDASTSLLVASLVYPSQRTSNILSDVVDLKTSLPEWVRIGFSAATGLDIPGESHDVLSWSFASNLPHASSNIDPLDLTSFVLHEAI
notes: also called soybean meal lectin; agglutinin; source: purified from soybean meal (GalNAc beads, eluted with galactose; Superdex 200 gel filtration)
On to B1, for which the stoichiometry N (as a rule, the number of molecules, sites or subunits per partner or assembly) was determined as 4.

Source of the values: publication PMC12147205, “Soybean Lectin Cross-Links Membranes by Binding Sulfatide in a Curvature-Dependent Manner” (Journal of Agricultural and Food Chemistry, 2025).
